Among the data in PubChem BioAssay AID485344 (National Center for Advancing Translational Sciences (NCATS), 2010) are inhibition values, retold here.

About 6,900 (2%) of roughly 340,000 compounds were called active. Cut-off read from the data, not from the text of the source: active = inhibition above about 30%; inactive = below that, where a call was filed. Only a part is listed here, and it is no random draw. Entries without a call were filed so in the source.

The inhibition is the drop in the measured response relative to a control, in per cent.

For the assay, the target named is D(2) dopamine receptor (Homo sapiens) (UniProt P14416). Description: HTS Assay for Allosteric Antagonists of the Human D2 Dopamine Receptor: Primary Screen for Antagonists. Note: 0% is about no effect. Conditions: HEK293 TREx D2 cells, calcium flux, dopamine EC80; at 10 µM; stronger effect = higher value. The gist of the method: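 Compounds are added to dye-loaded, induced HEK293 T-REx cells coupled to calcium release via D2; after a 3 min kinetic read an EC80 dopamine stimulus is given and fluorescence is recorded for 3 more min.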
Chain of UniProt P14416 (P14416 whole entry, looked up): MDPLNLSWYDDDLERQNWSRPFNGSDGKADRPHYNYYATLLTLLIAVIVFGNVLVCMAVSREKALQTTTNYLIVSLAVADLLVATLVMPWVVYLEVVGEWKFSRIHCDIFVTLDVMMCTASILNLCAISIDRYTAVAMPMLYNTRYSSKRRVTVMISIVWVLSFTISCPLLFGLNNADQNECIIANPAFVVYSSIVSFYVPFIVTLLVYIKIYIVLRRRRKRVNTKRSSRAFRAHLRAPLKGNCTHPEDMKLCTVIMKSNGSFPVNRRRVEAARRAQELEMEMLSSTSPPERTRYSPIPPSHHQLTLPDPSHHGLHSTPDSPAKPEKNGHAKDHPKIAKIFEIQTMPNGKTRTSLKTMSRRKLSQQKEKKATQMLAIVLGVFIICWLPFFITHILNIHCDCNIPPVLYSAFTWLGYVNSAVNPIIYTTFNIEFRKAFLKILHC
A general note: Calcium flux is commonly read through the fluorescence of an indicator in the cells.
With `COc1cc(CNc2ccc3[nH]c(=O)[nH]c3c2)cc(Cl)c1OCc1ccc(F)cc1`, the inhibition was found to be 5.87%.
For the molecule `COc1ccc(NC(=O)CN(c2ccc(C)cc2)S(=O)(=O)c2cccs2)cc1`, the inhibition is -11.2%.
With `Cc1nn(C(C)(C)C)c(OC(=O)c2c(F)cccc2F)c1Sc1ccccc1`, the inhibition is -12.9%.
Then `O=C(Nc1ccc(S(=O)(=O)N(Cc2ccccc2)c2ccccc2)cc1)c1ccc(F)cc1`, with -1.31%; and `O=C(CCCn1c(=O)c2ccccc2n(Cc2cccc(F)c2)c1=O)NCc1ccccc1Cl`, with 8.81%.
Turning to `O=C(CCc1ccccc1)N1CCc2c([nH]c3ccccc23)C1c1ccc(F)cc1` (configuration not stated), the inhibition is -3.36%.
The result for `CCCCNC(=O)c1sc2ncccc2c1-n1cccc1` reads 13.8%; that for `O=C(c1ccc(Br)o1)N1CCN(CCOc2ccccc2)CC1`, active: 86.3%.
The result for `COC(=O)c1ccc(OC)c(CN2C(=O)N(c3ccc(C(C)=O)cc3)S(=O)(=O)c3ccccc32)c1` reads -12.5%; that for `Cc1ccc(CNCc2c(C(=O)O)n(Cc3ccc(C)cc3)c3cc(C)ccc23)cc1`, 9.43%.
As for `CCOC(=O)c1c(C)[nH]c(CCC(=O)Nc2ccc(Cl)cc2C)c1C`, the inhibition was -2.18%.
`COc1ccc(-c2noc(CNS(=O)(=O)c3ccc(Br)cc3)n2)cc1OC`: the inhibition was -6.46%.
In the case of `Cc1ccc(-c2noc(CN(C(=O)COc3cc(C)cc(C)c3C)C(C)C)n2)cc1`, the inhibition is -4.75%.
The result for `Cc1cc(C)cc(NC(=O)CSc2nnc(-c3cc4occc4n3C)n2-c2ccccc2C)c1` reads 15.8%.
For `O=S(=O)(NCCc1csc2nc(-c3ccccc3)nn12)c1ccc(Cl)s1`, the inhibition was 1.33%.
Then `COc1ccc2c(CNC3CCCCCC3)c(C(=O)O)n(Cc3cccc(F)c3)c2c1`, with -2.93%; and `Cc1ccc(S(=O)(=O)N(C)C)cc1NC(=S)NC(C)CCCC(C)C` (configuration not stated), with active: 74.9%.
The result for `CCN(CC)CCSc1nnc2c3cc(F)ccc3n(C)c2n1` reads 2.74%; that for `CCCCNC(=O)C1CCN(S(=O)(=O)c2ccc3c(ccn3CC)c2)CC1`, 25.1%; that for `CC(C)NC(=O)C1CCN(C(=O)c2cc3sccc3n2Cc2ccc(Cl)cc2)CC1`, 2.07%.
Then `Cc1cc(C)c(NC(=O)c2ncoc2-c2ccco2)c(C)c1`, with 3%; and `Cn1c(=O)c2c(c3ccccc31)OC(=O)CC2c1cccc(F)c1` (configuration not stated), with -19.1%.
As to `CCOc1ccc(NC(=O)c2cc3c(=O)n(Cc4cccs4)ccc3nc2C)cc1`, the inhibition was 0.366%.
Then `O=C(Nc1ccc(Cl)cc1)N1CCN(c2ccc3nnc(-c4ccccc4)n3n2)CC1`, with 4.55%; and `Cc1cccc(C(=O)NNC(=O)CSc2nnc(C(C)C)n2C)c1`, with active: 41.8%; and `COc1ccccc1N(CC(=O)NCCSCc1cccc(Cl)c1)S(C)(=O)=O`, with -16.9%.
`O=C(C1CCC(Cn2c(=O)c3sccc3n(Cc3ccccc3F)c2=O)CC1)N1CCCCC1` (configuration not stated): the inhibition was -15%.
For the molecule `COc1ccccc1CNC(=O)c1cnc(N2CCCC2)nc1C`, the inhibition was found to be 5.97%.
Then `CCCOC(=O)c1ccc(Cn2nnc3sc4c(c3c2=O)CCC(C)C4)cc1` (configuration not stated), with 3.82%.
The result for `CCOc1ccc(NC(=O)c2cc(S(=O)(=O)N3CCOCC3)ccc2F)cc1` reads 26.4%; that for `CC1CCN(c2oc(/C=C/c3ccc(F)cc3)nc2C#N)CC1`, -5.61%; that for `CCOc1ccc(-c2nc(Cn3c(=O)cc(C)c4c(C)nn(-c5ccc(C)cc5)c43)c(C)o2)cc1`, 8.97%.
Turning to `CCc1c(C)sc2c1CCN(C(=O)Nc1ccc(F)c(Cl)c1)C2c1ccc(F)cc1` (configuration not stated), the inhibition came out at 20.5%.
Turning to `COc1ccccc1NC(=O)C1=C(C)Nc2nc(SCc3ccccc3)nn2C1c1cccnc1` (configuration not stated), the inhibition is 6.09%.
The result for `O=C(Nc1ccccc1)C1CCN(S(=O)(=O)c2ccc3[nH]c4c(c3c2)CCCCC4)CC1` reads 6.81%; that for `COc1ccc(CCNC(=O)CCn2c(=O)c3ccccc3n(CC(=O)Nc3ccc(C)cc3C)c2=O)cc1OC`, -4.4%.
Regarding `CCOc1ccc(S(=O)(=O)c2cn(Cc3cc(C)ccc3C)c3ccc(OCC)cc3c2=O)cc1`, the inhibition was -10.7%.
The result for `CCOC(=O)Cn1c(=O)oc2cc(S(=O)(=O)N3CCN(c4ccc(C(C)=O)cc4)CC3)ccc21` reads 26.7%.
`COc1cccc(Nc2nc3cc(Cl)c(Cl)cc3nc2-n2nc(C)cc2C)c1`: the inhibition is 13.1%.
The result for `COc1ccc(NC(=O)Cn2nc(C)c3nn(-c4ccc(Cl)cc4)c(C)c3c2=O)cc1` reads 16.9%; that for `CCN(CCCNC(=O)c1cc(Nc2ccccc2OC)nc2ccccc12)c1cccc(C)c1`, 20.9%; that for `CCN(CC)c1ccc(/C=C/C(=O)c2ccc(Br)cc2)cc1`, active: 71%.
The result for `COc1ccc(OC)c(CCNC(=O)c2c3c(nc4ccccc24)C(=O)N(C2CCCCC2)C3)c1` reads 13.4%; that for `COc1ccc(-c2noc(C3CC(=O)N(c4ccccc4)C3)n2)c(OC)c1` (configuration not stated), 11%.
The result for `O=C(CSc1nc2c([nH]c3ccccc32)c(=O)n1-c1ccc(Cl)cc1)N1CCCC1` reads 4.36%; that for `Cc1cc(C)c(NC(=O)COc2ccc3c(C)cc(=O)oc3c2)c(C)c1`, -9.76%.
For `O=S(=O)(NCC(Nc1ccc(Cl)cc1)c1ccccc1)c1ccccc1` (configuration not stated), the inhibition is -4.93%.
Then `COc1ccc(-c2cn3nc(SCC(=O)Nc4ccc(C)c(Cl)c4)ccc3n2)cc1`, with 2.26%.
As for `Cc1ccc(NC(c2ccc(Cl)cc2)c2nnc(-c3cccc(F)c3)o2)cc1C` (configuration not stated), the inhibition was -11.1%.
Then `COC(=O)c1ccc(NC(=O)CN2C(=O)c3cccc4cccc2c34)cc1`, with -9.92%; and `COC(=O)CCNC(=O)N1CCN(c2nnc(C)c3c(C)n(-c4ccc(Cl)cc4)nc23)CC1`, with 6.47%.
As for `Cc1ccccc1C(=O)OCCN(C)Cc1ccccc1`, the inhibition is active: 31.5%.
The result for `COc1ccccc1-n1c(-c2ccc(C)cc2)cn2c3c(=O)n(C)c(=O)n(C)c3nc12` reads -0.701%.
Turning to `Cc1nc(SCC(=O)Nc2ccccc2F)[nH]c(=O)c1Cc1ccccc1`, the inhibition was -1.44%.
Then `COc1ccc(NC(=O)c2cnc[nH]2)cc1`, with 9.91%; and `CCc1nn(CC(=O)NCc2ccccc2Cl)c(=O)c2cccn12`, with 2.79%.
Then `COc1ccc(CCNC(=O)c2ccc3c(c2)N(Cc2ccc(F)cc2)CCS3)cc1OC`, with -13.1%; and `Cc1nc(-c2ccc(S(=O)(=O)Nc3ccc(C)c(N(C)C)c3)cc2)co1`, with -1.22%.
Then `Cc1cc(C)cc(NC(=O)c2cccc3c2C(=O)N(C2CCCCC2)C3)c1`, with 2.04%; and `COCCNc1nc(-c2cc3ccccc3o2)cs1`, with active: 37.9%.
With `O=C(COc1ccccc1[N+](=O)[O-])Nc1ccc(-c2nc3ccccc3s2)cc1`, the inhibition was -3.57%.
The result for `Cc1cccc(OCC(=O)Nc2ccc3c(c2)nc(CCN2CCN(c4ccccn4)CC2)n3C)c1` reads active: 30.8%.
